Laboratory results: publication PMC4336329 (PLoS ONE, 2015)
About 14,000 (4.5%) of roughly 310,000 compounds showed an effect of 50% or more. Effects have a minus sign here. This is one part of the list.

molecular target: human ether-à-go-go-related gene (hERG) potassium channel (human, UniProt Q12809); experiment: primary screen, population patch clamp on CHO cells stably expressing hERG
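Note: peak tail current of the secondary pulse compared with the same well before compound.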

Sequence of human ether-à-go-go-related gene (hERG) potassium channel (Q12809 whole entry, looked up): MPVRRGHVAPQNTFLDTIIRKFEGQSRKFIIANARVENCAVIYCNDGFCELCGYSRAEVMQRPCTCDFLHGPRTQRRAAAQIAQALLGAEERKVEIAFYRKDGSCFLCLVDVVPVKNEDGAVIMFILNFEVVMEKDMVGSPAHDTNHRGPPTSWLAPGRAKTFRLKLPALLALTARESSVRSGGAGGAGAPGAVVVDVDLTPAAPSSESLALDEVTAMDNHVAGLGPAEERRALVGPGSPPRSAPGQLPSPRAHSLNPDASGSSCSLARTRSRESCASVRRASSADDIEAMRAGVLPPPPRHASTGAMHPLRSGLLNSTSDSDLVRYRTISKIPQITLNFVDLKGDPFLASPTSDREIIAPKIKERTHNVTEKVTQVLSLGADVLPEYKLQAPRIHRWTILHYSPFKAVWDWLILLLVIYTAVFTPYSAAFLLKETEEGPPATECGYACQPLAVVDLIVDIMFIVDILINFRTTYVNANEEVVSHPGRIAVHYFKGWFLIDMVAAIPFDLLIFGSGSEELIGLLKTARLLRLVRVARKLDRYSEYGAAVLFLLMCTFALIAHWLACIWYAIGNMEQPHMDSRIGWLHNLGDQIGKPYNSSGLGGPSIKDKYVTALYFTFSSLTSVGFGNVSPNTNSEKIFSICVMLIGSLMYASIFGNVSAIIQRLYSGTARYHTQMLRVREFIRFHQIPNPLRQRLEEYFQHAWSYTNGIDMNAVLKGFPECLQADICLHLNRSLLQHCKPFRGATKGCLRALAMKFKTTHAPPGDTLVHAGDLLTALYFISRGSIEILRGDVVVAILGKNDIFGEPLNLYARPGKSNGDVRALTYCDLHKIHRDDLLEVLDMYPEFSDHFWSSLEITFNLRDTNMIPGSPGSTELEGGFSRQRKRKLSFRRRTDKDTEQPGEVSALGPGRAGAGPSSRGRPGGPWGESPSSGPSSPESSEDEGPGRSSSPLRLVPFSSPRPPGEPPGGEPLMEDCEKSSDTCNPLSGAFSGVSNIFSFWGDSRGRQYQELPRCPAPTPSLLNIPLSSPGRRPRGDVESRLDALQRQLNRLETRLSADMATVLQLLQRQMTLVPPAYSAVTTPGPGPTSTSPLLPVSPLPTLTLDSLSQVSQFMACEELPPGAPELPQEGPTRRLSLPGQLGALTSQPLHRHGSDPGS

Row | Compound | hERG current change (%, negative = inhibition) at 10uM [%]
1 | c1ccc(N2CCN(c3cnc4ccccc4n3)CC2)cc1 | -6.77
2 | O=c1[nH]c(=O)n(CCc2ccccc2)c(O)c1C=NCCCn1ccnc1 | -2.66
3 | COC(=O)c1cc(C(=O)NC(C)(C)CC(C)(C)C)cc([N+](=O)[O-])c1 | -19.7
4 | COc1ccc(OC)c(NC(=O)NNC(=O)c2cc3occc3[nH]2)c1 | 14.3
5 | CCOc1ccccc1N1C(=O)c2ccc(C(=O)Nc3cccnc3)cc2C1=O | -30.2
6 | CCCCn1c(N)c(N(CC)C(=O)c2ccc(C)cc2)c(=O)[nH]c1=O | 28.3
7 | CN(C)c1ccc(C(C(=O)NCc2ccccc2)N(Cc2ccco2)C(=O)c2snc(C(N)=O)c2N)cc1 (stereo not shown) | -9.36
8 | COc1cc(NC(=O)CSc2nc(C)c(C)c(C)n2)cc(OC)c1 | -3.53
9 | COC(=O)c1ccc(COC(=O)CCC(=O)c2cccs2)cc1 | 12.5
10 | C=CCn1c(=O)c(C=Nc2c(OC)cccc2[N+](=O)[O-])c(O)n(CCCC)c1=O | -23.8
11 | COc1ccc(C(CNC(=O)c2oc3ccc(Br)cc3c2C)N2CCCCC2)cc1 (stereo not shown) | -13.3
12 | O=C1/C(=C/c2ccccc2[N+](=O)[O-])COc2ccccc21 | 14
13 | Cn1cc(/C=C(\NC(=O)c2ccccc2Cl)C(=O)N2CCOCC2)c2ccccc21 | 14.3
14 | CCOC(=O)c1c(NC(=O)CSc2nnc(-c3cccnc3)o2)sc2c1CCC2 | -11.1
15 | Cc1ccccc1Nc1nc(CSc2nnnn2-c2ccccc2)cs1 | -2.74
16 | CSc1ccc(NC(=O)N2CC(C)OC(C)C2)cc1 (stereo not shown) | 4.42
17 | CCOC(=O)C1CCN(C(=O)Nc2cccc(Cl)c2)CC1 | 8.82
18 | COc1cc(C(=S)NCc2ccccc2)cc(Br)c1O | 2.7
19 | O=C(c1ccccc1Cl)N1CCc2ccccc2C1 | -8.59
20 | Cc1ccc(C)n1-c1cc([N+](=O)[O-])ccc1-n1ccnc1 | -28.7

Row | Compound | hERG current change (%, negative = inhibition) at 10uM [%]
21 | C[C@]12CC[C@@H]3c4ccc(OS(=O)(=O)[O-])cc4CC[C@H]3[C@@H]1CCC2=O.[K+] | 21.8
22 | CCN1C(=O)/C(=C2/Sc3ccccc3N2CC)SC1=S | 9.35
23 | COc1ccc(C(=O)Oc2ccc(C(=S)N3CCCC3)cc2)cc1OC | 16.1
24 | COc1ccc(C(O)c2nc3ccccc3n2C)cc1OC (stereo not shown) | 11.9
25 | COc1ccc(CN2CCN(CCC(C)C)C(CCO)C2)cc1Cn1cncn1 (stereo not shown) | 1.78
26 | CCOc1ccccc1CN1CCNC(=O)C1CC(=O)NC1CCCCCC1 (stereo not shown) | -4.82
27 | COc1ccc(C2C(C(=O)c3ccco3)=C(O)C(=O)N2CCc2ccccc2)cc1OC (stereo not shown) | -3.32
28 | CSc1nnnn1-c1ccc(C(=O)O)cc1 | 20.3
29 | CCN1CCN(c2cc(=O)n(C3CCCCC3)c(=O)[nH]2)CC1 | 5.59
30 | CCn1cc(S(=O)(=O)c2ccc(Cl)cc2)c(=O)c2cc(OC)ccc21 | -18.6
31 | Cc1ccc2c(COC(=O)c3ccccc3OC(F)F)cc(=O)oc2c1 | 27.8
32 | O=C(CN1CCOC1=O)N1CCCC(Nc2ccc(F)c(F)c2)C1 (stereo not shown) | 2.91
33 | C/C=C/C(=O)OCC(=O)Nc1ccccc1Br | 23.6
34 | COCCCNC(=O)c1ccc2c3c(onc13)-c1ccccc1C2=O | -3.25
35 | NC(=O)c1ccccc1NC(=O)CC12CC3CC(CC(C3)C1)C2 | -0.125
36 | O=C(NCC(c1cccnc1)N1CCN(c2ccccc2)CC1)c1ccco1 (stereo not shown) | 10.6
37 | O=c1ccc2cc([N+](=O)[O-])c(CCO)cc2o1 | 11.3
38 | CN1CCN(C(=O)c2ccc3ccccc3c2)CC1 | -17.5
39 | Cc1ccc(C2=NN(CCC#N)C(=O)CO2)cc1 | 8.78
40 | COc1ccccc1CNC(=O)CCCC(=O)n1nc(C)c2ccccc21 | -14.1

Row | Compound | hERG current change (%, negative = inhibition) at 10uM [%]
41 | CCCNC(=O)CN(C)S(=O)(=O)c1c(C)cc(C)cc1C | 6.62
42 | O=C(NCc1ccc2c(c1)OCO2)Nc1cccc2ccccc12 | 0.281
43 | Cc1ccccc1Nc1nc(N)nc(CSc2nnc(-c3ccccc3)n2C)n1 | -12.2
44 | CCOc1ccc(C(=S)NC2CCCCC2)cc1OC | -1.75
45 | Cc1ccc(NS(=O)(=O)c2ccc(Cl)c(C(=O)O)c2)cc1S(=O)(=O)N1CCOCC1 | 11.3
46 | CCCOC(=O)c1ccc(NC(=O)CCOc2ccccc2)cc1 | -2.82
47 | CCCCNc1nc2c(c(=O)n(Cc3ccccc3)c(=O)n2C)n1C | 14
48 | CCOCN(C(=O)Cn1c(C(C)O)nc2ccccc21)c1c(C)cccc1CC (stereo not shown) | 4.08
49 | O=C(Nc1cccc(F)c1)c1ccco1 | 12
50 | O=C(NC1=NCCS1)c1sc2ccccc2c1Cl | 7.85
51 | O=c1[nH]c(/C=C/c2ccccc2F)nc2ccccc12 | 11.6
52 | Cc1ccc(C(=O)N/C(=C\c2cccs2)C(=O)NCCCn2ccnc2)cc1C | -61
53 | COc1ccc(NC(=O)COC(=O)c2c(-c3ccccc3)noc2C)cc1 | 0.159
54 | S=c1[nH]nc(CCCc2n[nH]c(=S)o2)o1 | 19.1
55 | O=C(Cc1noc2ccccc12)Nc1ccc2ccccc2c1 | 0.898
56 | Cc1ccc2c(c1)CCCN2C(=O)c1ccncc1 | 7.75
57 | O=C(NC12CC3CC(CC(C3)C1)C2)c1cc2nc(-c3ccco3)cc(C(F)(F)F)n2n1 | 3.96
58 | COc1ccc([C@H]2CC(=O)C=C(c3cccc(C(F)(F)F)c3)C2)cc1 | -14.4
